Measured values taken from PubChem BioAssay AID504333 (National Center for Advancing Translational Sciences (NCATS), 2011).
Among all 360,000 compounds or so, about 16,000 (4.4%) were called active. The inconclusive results got no clear call from the source; some entries with a clear call stand among them for comparison. Calls come from the whole dose curve; as a rule, active = well fitted inhibition curve with a large enough effect; inconclusive = small, poorly fitted or top-dose-only effect; inactive = no such curve, though single readings can be large or run the other way. Potencies of inconclusive entries are doubtful fits and often do not repeat.

The molecules below were run against Bromodomain adjacent to zinc finger domain protein 2B (Homo sapiens) (UniProt Q9UIF8) (assay: qHTS Assay for Inhibitors of BAZ2B). Conditions: AlphaScreen BAZ2B-H3K14Ac peptide displacement; activity change, negative = inhibition: at 114 µM (top of the series).
Chain of UniProt Q9UIF8 (Q9UIF8 whole entry, looked up, the tested form may be a part): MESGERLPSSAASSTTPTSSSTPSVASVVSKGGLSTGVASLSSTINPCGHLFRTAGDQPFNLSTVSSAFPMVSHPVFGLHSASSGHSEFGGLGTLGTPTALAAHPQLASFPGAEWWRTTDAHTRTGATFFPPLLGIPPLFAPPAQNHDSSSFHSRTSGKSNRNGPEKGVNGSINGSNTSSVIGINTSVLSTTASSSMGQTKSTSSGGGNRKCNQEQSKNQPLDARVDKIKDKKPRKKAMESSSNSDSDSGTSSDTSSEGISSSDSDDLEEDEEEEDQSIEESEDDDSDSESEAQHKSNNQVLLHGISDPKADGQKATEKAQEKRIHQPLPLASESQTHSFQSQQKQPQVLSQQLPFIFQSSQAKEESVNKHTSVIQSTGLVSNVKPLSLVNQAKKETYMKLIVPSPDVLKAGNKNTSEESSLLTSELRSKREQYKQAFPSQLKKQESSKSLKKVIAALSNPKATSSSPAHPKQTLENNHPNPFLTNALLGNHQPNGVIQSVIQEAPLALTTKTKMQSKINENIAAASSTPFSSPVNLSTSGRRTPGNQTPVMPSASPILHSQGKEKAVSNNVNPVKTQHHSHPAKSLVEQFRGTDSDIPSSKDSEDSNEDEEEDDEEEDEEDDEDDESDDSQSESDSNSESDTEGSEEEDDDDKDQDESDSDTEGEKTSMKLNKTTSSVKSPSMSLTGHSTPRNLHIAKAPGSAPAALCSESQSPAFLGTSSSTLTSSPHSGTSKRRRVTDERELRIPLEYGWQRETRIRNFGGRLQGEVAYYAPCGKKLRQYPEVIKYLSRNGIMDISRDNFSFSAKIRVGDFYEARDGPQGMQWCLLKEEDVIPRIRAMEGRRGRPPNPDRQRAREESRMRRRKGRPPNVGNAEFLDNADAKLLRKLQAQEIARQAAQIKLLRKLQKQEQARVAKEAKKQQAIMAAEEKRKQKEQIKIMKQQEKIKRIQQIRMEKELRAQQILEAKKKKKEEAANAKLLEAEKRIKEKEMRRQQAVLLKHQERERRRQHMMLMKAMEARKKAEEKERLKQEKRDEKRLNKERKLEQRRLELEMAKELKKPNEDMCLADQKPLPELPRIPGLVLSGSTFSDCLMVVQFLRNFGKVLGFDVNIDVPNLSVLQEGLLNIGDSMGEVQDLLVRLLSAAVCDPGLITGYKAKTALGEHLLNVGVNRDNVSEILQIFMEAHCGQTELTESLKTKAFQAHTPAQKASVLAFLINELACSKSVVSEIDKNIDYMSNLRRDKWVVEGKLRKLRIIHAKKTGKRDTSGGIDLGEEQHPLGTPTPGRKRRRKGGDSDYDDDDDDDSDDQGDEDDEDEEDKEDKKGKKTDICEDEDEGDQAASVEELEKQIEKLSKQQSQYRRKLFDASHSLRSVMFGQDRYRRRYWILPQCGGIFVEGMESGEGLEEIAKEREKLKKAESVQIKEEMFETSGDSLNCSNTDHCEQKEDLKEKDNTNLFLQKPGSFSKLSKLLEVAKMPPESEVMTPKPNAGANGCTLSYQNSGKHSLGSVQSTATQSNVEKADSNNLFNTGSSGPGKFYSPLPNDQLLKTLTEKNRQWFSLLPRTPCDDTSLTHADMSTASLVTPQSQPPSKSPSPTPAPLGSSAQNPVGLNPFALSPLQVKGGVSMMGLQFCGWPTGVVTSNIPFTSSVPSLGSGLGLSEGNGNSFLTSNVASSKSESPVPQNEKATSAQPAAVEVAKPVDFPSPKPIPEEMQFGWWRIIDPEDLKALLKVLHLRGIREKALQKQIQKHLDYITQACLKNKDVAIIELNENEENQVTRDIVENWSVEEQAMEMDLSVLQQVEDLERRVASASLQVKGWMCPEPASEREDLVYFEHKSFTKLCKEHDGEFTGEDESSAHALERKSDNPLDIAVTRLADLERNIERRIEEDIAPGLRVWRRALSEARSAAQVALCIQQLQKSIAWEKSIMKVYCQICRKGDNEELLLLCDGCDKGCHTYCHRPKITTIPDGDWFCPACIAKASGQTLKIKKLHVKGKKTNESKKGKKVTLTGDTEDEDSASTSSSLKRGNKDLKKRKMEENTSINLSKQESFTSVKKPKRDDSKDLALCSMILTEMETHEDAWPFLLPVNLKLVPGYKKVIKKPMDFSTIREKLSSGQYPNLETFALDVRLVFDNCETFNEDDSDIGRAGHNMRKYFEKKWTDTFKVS
Procedure, shortened: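 In this displacement format the biotinylated H3(5-23) peptide acetylated at Lys14 serves as ligand at 50 nM, with BAZ2B at 50 nM in PBS pH 7.4 containing 0.01% Tween-20. Donor and acceptor beads are 10 ug/mL final.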
% is set by controls: 0 for no effect and ±100 for the full control effect; potency is the fitted concentration of half-maximal effect; tags give direction and shape of the fitted curve.
Note: nearly all actives have a fitted effect of over 60% in size.

Row | Compound | Potency | activity change, negative = inhibition
1 | Cc1cc(C)cc(NC(=O)C2CCCN(c3nnc(C)c4c(C)n(-c5ccccc5)nc34)C2)c1 (stereo not drawn) | inactive | –
2 | O=C1CCN(Cc2ccccc2)CCN1CCOc1ccccc1 | inactive | –
3 | CC1=C(C#N)C(=O)N(C2CCS(=O)(=O)C2)C(=O)/C1=C\c1ccc(C)o1 (stereo not drawn) | active: 44.7 µM | –
4 | Cc1ccc(NC(=O)c2cccc(S(=O)(=O)N3CCCC3)c2)nc1 | inactive | –
5 | COc1ccc(N2C(=O)C(=O)/C(=C(/O)c3ccc(C)cc3)C2c2cccnc2)cc1 (stereo not drawn) | active: 56.2 µM | –
6 | O=C(O)c1cccc(Cn2c(Cl)c(/C=N/Nc3ccccc3)sc2=O)c1 | active: 25.1 µM | –
7 | CCCCNC(=O)CCCN1C(=O)c2cccnc2Sc2ccccc21 | inactive | –
8 | C/C(CC(=O)NCc1ccco1)=N\NC(=O)c1ccc(Cl)cc1Cl | inconclusive: 79.4 µM [inhibitor, single point] | –
9 | COc1ccc(CCN2C(=O)C3C4CCC(C4=C(C)C)C3C2=O)cc1OC (stereo not drawn) | inactive | –
10 | Cc1nn(-c2ccccc2)c(Cl)c1/C=C1\SC(=S)NC1=O | inconclusive: 79.4 µM [inhibitor, single point] | –
11 | CCS(=O)(=O)C1=NSC2=NC(=O)/C(=C\c3ccc(OS(=O)(=O)c4ccccc4)c(OC)c3)C(=N)N21 | active: 50.1 µM | –
12 | COc1ccc(-c2nc3n(n2)C(=O)CC(c2ccco2)S3)cc1 (stereo not drawn) | inconclusive: 89.1 µM [inhibitor, single point] | –
13 | CCOc1cc(C2C(C(=O)OC)=C(C)NC3=C2C(=O)c2ccccc23)ccc1O (stereo not drawn) | inconclusive: 20 µM [inhibitor, full curve] | –
14 | O=C(Nc1ccc(N2CCC(N3CCCCC3)CC2)c(C(=O)O)c1)c1ccc(Br)cc1 | active: 79.4 µM | –
15 | CCc1ccc(-c2nn(CC(=O)NC3CCCC3)c3c2cnc2ccc(C)cc23)cc1 | inactive | –
16 | CCC(=O)NC(c1ccccc1OC)c1ccc2cccnc2c1O (stereo not drawn) | active: 25.1 µM | –
17 | COC(=O)Cn1c2ccccc2c2nc3ccccc3nc21 | – | inconclusive: -43.6% [inhibitor]
18 | CCCCn1c(SCC(=O)c2ccc(O)c(O)c2)nc2ccsc2c1=O | inconclusive: 39.8 µM [inhibitor, partial curve] | –
19 | CC(C)(C)C1CCC(=NNC(=S)NCc2ccccc2)CC1 (stereo not drawn) | inconclusive: 17.8 µM [inhibitor, full curve] | –

Row | Compound | Potency | activity change, negative = inhibition
20 | COc1cc2c(cc1OC)-c1cc(NCc3ccccn3)nc(=O)n1CC2 | active: 28.2 µM | –
21 | COc1cc(/C=C2/SC(=S)N(CC(=O)O)C2=O)ccc1OC(=O)c1cccs1 | inconclusive: 39.8 µM [inhibitor, partial curve] | –
22 | CN1CCN(C2CC(=O)N(c3ccc4c(c3)OCCO4)C2=O)CC1 (stereo not drawn) | inconclusive: 89.1 µM [inhibitor, single point] | –
23 | CCN1CCN(Cc2c(O)ccc3c2O/C(=C\C=C\c2ccccc2)C3=O)CC1 | inconclusive: 70.8 µM [inhibitor, single point] | –
24 | CS(=O)(=O)Nc1cccc(C2=NN(C(=O)c3ccc(F)cc3)C(c3cccs3)C2)c1 (stereo not drawn) | inconclusive: 79.4 µM [inhibitor, single point] | –
25 | Cc1ccc2nc(-c3ccccc3)cc(C(=O)NCCCn3ccnc3)c2c1 | inconclusive: 28.2 µM [inhibitor, single point] | –
26 | Cc1ccc(NC(=O)Cn2c(=O)n(Cc3ccccc3)c(=O)c3c(C)c(C)sc32)c(C)c1 | inactive | –
27 | COc1cc2c(cc1Cl)/C(=C\CCN(C)C)c1ccccc1S2 | inconclusive: 50.1 µM [inhibitor, partial curve] | –
28 | CC1=C(OC(=O)c2ccccc2)C(C)(C)C(c2ccc(Br)cc2)OC1=O (stereo not drawn) | inconclusive: 89.1 µM [inhibitor, single point] | –
29 | COc1ccccc1Nc1nc(N)nc(CN2CCN(Cc3ccc4c(c3)OCO4)CC2)n1 | inconclusive: 56.2 µM [inhibitor, partial curve] | –
30 | O=C(CSc1nc2[nH]c(=O)cc(O)c2s1)Nc1cccc(Br)c1 | inactive | –
31 | O=C(O)CCCN1C(=O)/C(=C/C=C/c2ccco2)SC1=S | active: 3.98 µM | –
32 | Cc1ccc(NC(=O)c2c(Nc3ccccc3C)sc(C(=O)c3ccccc3)c2N)cc1 | inconclusive: 35.5 µM [inhibitor, partial curve] | –
33 | OCC[C@@H]1C[C@H](O)[C@@H](O)[C@@]2(CCc3ccccc3CO2)O1 | inactive | –
34 | CCOc1ccc(C(=O)Nc2ccc(N3CCN(C(C)=O)CC3)cc2)cc1[N+](=O)[O-] | inconclusive: 79.4 µM [inhibitor, single point] | –
35 | CCOC(=O)c1ccc(OCC2c3cc(OC)c(OC)cc3CCN2C(=O)Cc2ccc(F)cc2)cc1 (stereo not drawn) | inconclusive: 25.1 µM [inhibitor, single point] | –
36 | Nc1cc(OC(=O)c2ccccc2Br)nn1S(=O)(=O)c1ccccc1 | inconclusive: 89.1 µM [inhibitor, single point] | –
37 | COc1cccc(CNC(=O)c2ccccc2-c2ccccc2)c1 | inactive | –
38 | COc1ccc(O)c(C(=O)c2cnn(-c3ccc(Cl)cc3)c2)c1 | inconclusive: 39.8 µM [inhibitor, partial curve] | –
